Test results taken from the supplement of paper PMC7726561.
In all, about 1,400 sequences were measured (“thermal melting temperature (Tm) of peptide-HLA complex”: median about 60, lowest 2% from about 45 on). The list shows a part of the results.

target: HLA-B*07:02; assay: thermal melting temperature (Tm) of peptide-HLA complex; higher = more thermostable pHLA complex; conditions: C1R-B*07:02
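Also: cell lysates heated 10 min at 37–73 °C, remaining pHLA pulled down with pan-class I antibody, peptides quantified by DIA-MS versus 37 °C, Tm where half the complex is lost.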

Sequence	thermal melting temperature [°C]
GPRFSPITPL	61.5
AVRKPAISL	60.7
TPHARIIEL	59.9
SPRFPAQYL	62.6
KPAASPLTSL	61.2
NPNMRLSQL	59.5
RPWTVMESL	59.6
QPRPPVTLI	60.7
SPRNEVEAL	58.1
SPRWGGIMV	62.3
RPAGPVAVGI	43.3
HPNGNITEL	55.3
SPAPQPPVL	63.3
KPRTPFTTAQL	45.6
MPHVPITTL	61.3
GPNGGIVTSL	62.8
YPRPLLIAF	62
RPFADVLSL	61.8
MPFPNIRSAEL	58.2

Sequence	thermal melting temperature [°C]
SPFLLGRAL	61.7
IPDHFRPPL	60.4
TPAPRPLLL	61.5
LPYKAGLSL	61
RPYHTIIEI	56.7
MPSQFRDIL	63.4
RPPYYTPNQL	58.6
SPSQPWQRL	58.4
RPITDSPVL	59.6
QPQGPPWLAL	60
IPAYKLETL	63
QPSVQPPL	54.3
RPAPLSAEL	61.2
GPQIPRAAL	59.7
RPLLKAITA	60.6
HPIQVQPGRIL	57.2
FPRNNISYL	59.8
APQWPIIAF	65.6
RPKLPEDPLL	60.6

Sequence	thermal melting temperature [°C]
LPRREGYEF	54.9
RPIPQWIRM	52
MPRGPTLGH	57.3
TARPPGYEF	57.4
QPVPRSVL	51
PAWPHRGL	52.2
VPSEPKLSL	61.1
FPRVTTVSEL	58.9
QPRDALGDSL	52.1
RPTGGVGAVAL	50.3
RPSSQYIVAL	58.5
RPFGSISRIYL	54.2
RPDDKRILEF	52.7
APRLASILTSA	62.4
GPTWHNLAL	62.1
YPRSILTSL	63.8
GPMNLRAAF	62.1
RPAGPQLFL	61.7
